# Laboratory results: the supplement of paper PMC9446081
# The campaign covered roughly 39,000 compounds. About 220 (0.56%) showed activity. The list shows a part of the results.
# System: Escherichia coli K-12 BW25113
# Assay: relative growth (OD600 normalised to plate interquartile mean) (fraction); higher = less growth inhibition, active = 0.2 or less
# Settings: 50 µM; LB; incubation time: overnight (16-24 h)
# 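Also: static incubation at 37 °C against the wild-type strain, values averaged over two biological replicates.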
row,Compound,relative growth
1,C[C@@H]1CCCCO[C@@H](CN(C)Cc2ccccc2)[C@@H](C)CN([C@H](C)CO)C(=O)c2cc(NC(=O)CCC(F)(F)F)ccc2O1,inactive: 0.966
2,Cn1nccc1N,inactive: 0.99
3,Clc1ccc2c(c1)C(N1CCNCC1)=Nc1ccccc1O2,inactive: 0.793
4,CO[C@H]1CN(C)C(=O)c2cc(NS(=O)(=O)CC(F)(F)F)ccc2OC[C@@H](C)N(C(=O)NC(C)C)C[C@H]1C,inactive: 1
5,C[C@H](CO)N1C[C@H](C)[C@@H](CN(C)S(C)(=O)=O)Oc2cc(C#Cc3ccccc3)ccc2S1(=O)=O,inactive: 1.01
6,C[C@H](CO)N1C[C@H](C)[C@H](CN(C)Cc2ccc(-c3ccccc3)cc2)OCc2ccccc2-c2ccccc2C1=O,inactive: 0.999
7,C[C@@H]1CCCCO[C@@H](CN(C)Cc2ccc(Cl)c(Cl)c2)[C@H](C)CN([C@H](C)CO)C(=O)c2cc(NS(=O)(=O)c3cccs3)ccc2O1,inactive: 0.983
8,C[C@H](CO)N1C[C@H](C)[C@H](CN(C)S(C)(=O)=O)Oc2ccc(NC(=O)Nc3ccc4c(c3)OCO4)cc2CC1=O,inactive: 0.97
9,O=C1c2ccccc2C(=O)C1c1ccccc1,inactive: 0.94
10,C[C@@H]1CN([C@@H](C)CO)C(=O)c2cc(NC(=O)CCCN(C)C)ccc2O[C@@H]1CN(C)Cc1ccncc1,inactive: 0.978
11,Cc1noc(C)c1C(=O)OCC(=O)NC1CC1,inactive: 0.94
12,COc1ccc(NC(=O)N(C)C[C@@H]2Oc3ncc(C#CC(C)(C)O)cc3C(=O)N([C@H](C)CO)C[C@@H]2C)cc1,inactive: 0.991
13,OCCN1CC(O)C(O)C(O)C1CO (centres undefined),inactive: 1.03
14,CCN(CC)CCNC(=O)c1cc(Cl)c(N)cc1OC.Cl,inactive: 1.15
15,COc1ccc(NC(=O)N(C)C[C@H]2OCCCC[C@H](C)Oc3ccc(NC(=O)NC4CCCCC4)cc3C(=O)N([C@@H](C)CO)C[C@H]2C)cc1,inactive: 1.01
16,C[C@H](CO)N1C[C@H](C)[C@H](CN(C)Cc2ccc3c(c2)OCO3)Oc2c(NC(=O)c3cnccn3)cccc2C1=O,inactive: 1.02
17,C[C@@H]1CCCCO[C@@H](CN(C)C(=O)c2ccncc2)[C@H](C)CN([C@@H](C)CO)C(=O)c2cc(NS(=O)(=O)c3cn(C)cn3)ccc2O1,inactive: 0.996
18,COc1ccc(NC(=O)Nc2ccc3c(c2)C(=O)N([C@@H](C)CO)C[C@H](C)[C@H](CN(C)S(=O)(=O)c2ccc(Cl)cc2)OCCCC[C@@H](C)O3)cc1,inactive: 1.03
19,CN(C)CCCNC(=O)C[C@H]1CC[C@H]2[C@H](COc3ccc(NC(=O)c4ccc5c(c4)OCO5)cc3C(=O)N2C)O1,inactive: 0.989
